# Laboratory results taken from PubChem BioAssay AID2147 (National Center for Advancing Translational Sciences (NCATS), 2009).
# The whole screen tested about 230,000 compounds, of which about 3,600 (1.6%) were called active. This list was built around the results that the source calls inconclusive (neither active nor inactive); the mix of calls is not that of the screen. The call rests on the fitted dose curve; in most records, active means well fitted inhibition curve with a large enough effect (not every such curve was filed as active); inconclusive means small, poorly fitted or top-dose-only effect, or another doubt; inactive means no such curve, though single readings can be large or run the other way. Where the call is inconclusive, the potency comes from a doubtful curve fit.
# Molecular target: Lysine-specific demethylase 4E (Homo sapiens) (UniProt B2RXH2)
# Assay: qHTS Assay for Inhibitors of Human Jumonji Domain Containing 2E (JMJD2E)
# Details: JMJD2E catalytic domain, FDH-coupled NADH fluorescence (FDH is formaldehyde dehydrogenase); series mostly up to 57.1 µM
# Further: nearly all actives have a fitted effect of over 50% in size.
# Potency means the concentration at half of the fitted maximal effect; tags describe the fitted curve by direction and shape.
# Sequence of UniProt B2RXH2 (B2RXH2 whole entry, looked up, the tested form may be a part): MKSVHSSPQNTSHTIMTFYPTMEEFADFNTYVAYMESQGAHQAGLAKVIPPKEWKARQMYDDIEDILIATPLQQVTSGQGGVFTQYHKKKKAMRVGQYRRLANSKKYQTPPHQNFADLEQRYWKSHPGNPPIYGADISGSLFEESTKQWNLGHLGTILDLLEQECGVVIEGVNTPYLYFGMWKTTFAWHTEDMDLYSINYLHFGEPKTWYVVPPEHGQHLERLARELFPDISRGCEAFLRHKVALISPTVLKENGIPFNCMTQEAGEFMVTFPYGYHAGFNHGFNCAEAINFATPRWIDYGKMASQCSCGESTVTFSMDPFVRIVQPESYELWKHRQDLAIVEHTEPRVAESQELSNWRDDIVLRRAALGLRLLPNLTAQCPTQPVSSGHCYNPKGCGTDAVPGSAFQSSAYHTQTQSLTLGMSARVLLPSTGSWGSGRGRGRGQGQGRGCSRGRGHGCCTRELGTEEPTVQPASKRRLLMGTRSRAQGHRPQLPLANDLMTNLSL
row,SMILES,Potency
1,O=C(CSc1nnc(-c2cccnc2)o1)OC1CCCCC1,inactive
2,CCOc1ccc2[nH]cc(C(=O)NCCCN3CCOCC3)c(=O)c2c1,"inconclusive: 28.2 µM [inhibitor, single point]"
3,COc1cc(-c2nc3cnccn3c2Nc2ccccc2)ccc1O,"inconclusive: 12.6 µM [inhibitor, partial curve]"
4,Cc1ccc(NC(=O)c2ccc(C#CC3(O)CCCCC3)cc2)cc1C,"inconclusive: 39.8 µM [inhibitor, single point]"
5,Cc1sc(NC(=O)c2ccc(OCC(C)C)cc2)c(C(N)=O)c1-c1ccc(Cl)cc1Cl,"inconclusive: 7.08 µM [inhibitor, partial curve]"
6,O=c1c(O)c(-c2ccc(O)cc2)oc2cc(O)ccc12,"inconclusive: 31.6 µM [inhibitor, partial curve]"
7,COc1ccc(-c2nc(CS(=O)CC(=O)NCc3cccnc3)c(C)o2)cc1OC (centres undefined),"inconclusive: 22.4 µM [inhibitor, partial curve]"
8,CCn1c(CNc2nc(-c3ccccc3)cs2)nnc1SCC(=O)NCc1ccco1,inactive
9,NC(=O)CSc1nc2scc(-c3ccco3)c2c(=O)n1-c1ccccc1,"inconclusive: 39.8 µM [inhibitor, single point]"
10,Cc1ccc(-c2nn3c(-c4ccco4)nnc3c3ccccc23)cc1S(=O)(=O)NCC1CCCO1 (centres undefined),inactive
11,NC(CCC(=O)NC(CCSC(CC(=O)O)C(=O)O)C(=O)NCC(=O)O)C(=O)O (centres undefined),inactive
12,Cc1ccc(-n2cc3c(=O)n(C)c(=O)n(C)c3c2)cc1C,inactive
13,CC[C@H](C)[C@@H](NC(=O)O[C@@H]1Cc2cc(Br)ccc2O[C@H]1c1cccc(OC)c1)C(=O)OC,inactive
14,CCOCCCNC(=S)Nc1ccc2nc3n(c(=O)c2c1)CCCCC3,"inconclusive: 39.8 µM [inhibitor, single point]"
15,O=C(O)CCc1nn2cc(-c3ccccc3)nc2[nH]c1=O,"inconclusive: 28.2 µM [inhibitor, partial curve]"
16,O=C(CN1CCN(S(=O)(=O)c2ccc(F)cc2)CC1)c1ccc(O)c(O)c1,active: 4.47 µM
17,COc1cccc2[nH]c3c(N4CC(C)CC(C)C4)ncnc3c12 (centres undefined),"inconclusive: 20 µM [inhibitor, partial curve]"
18,CCOCCCn1c(=NC(=O)c2ccco2)c(C(=O)OCC)cc2c(=O)n3cccc(C)c3nc21,"inconclusive: 22.4 µM [inhibitor, partial curve]"
19,CCOC(=O)c1cc(C(=O)Nc2ccc(C)c(F)c2)nn1C,"inconclusive: 35.5 µM [inhibitor, single point]"
20,CC(=O)N1N=C(c2cccs2)CC1c1ccc(C)o1 (centres undefined),"inconclusive: 20 µM [inhibitor, single point]"
21,O=c1oc2ccc3ccccc3c2c2c1SC(C(F)(F)F)C2 (centres undefined),"inconclusive: 35.5 µM [inhibitor, partial curve]"
22,CC(C)c1[nH]nc2c1C1(CCN(Cc3ccccc3)CC1)C(C#N)=C(N)O2,"inconclusive: 31.6 µM [inhibitor, single point]"

row,SMILES,Potency
1,CCCCCCNS(=O)(=O)c1ccc(NC(=O)C2CCCO2)cc1 (centres undefined),inactive
2,COc1ccc(-c2nnc3ccc(SCC(=O)NCc4ccco4)nn23)cc1,inactive
3,CCOC(=O)CN(C(=O)COc1nc(-c2ccccc2)cc(C)c1C#N)c1ccccc1,"inconclusive: 35.5 µM [inhibitor, partial curve]"
4,COc1cccc(-c2csc(N3CCN(Cc4ccccc4)CC3)n2)c1,inactive
5,O=C(C1=C[C@@H](c2csc3ccccc23)C[C@@H](OCc2ccc(CO)cc2)O1)N1CCN(Cc2ccccc2)CC1,"inconclusive: 39.8 µM [inhibitor, single point]"
6,N#Cc1c(-c2ccco2)cc(-c2cccnc2)nc1N,"inconclusive: 28.2 µM [inhibitor, partial curve]"
7,CC(OC(=O)/C=C/c1ccco1)C(=O)Nc1cccc([N+](=O)[O-])c1 (centres undefined),inactive
8,C=CCNc1ncnc2c1[nH]c1ccc(Cl)cc12,"inconclusive: 31.6 µM [inhibitor, partial curve]"
9,Cc1c(C(O)CN2CCN(Cc3ccc4c(c3)OCO4)CC2)c2ccccc2n1C (centres undefined),"inconclusive: 39.8 µM [inhibitor, single point]"
10,COC(=O)c1[nH]c2ccc(C)cc2c1NC(=O)CN1CCCC(C)(C)C1,"inconclusive: 31.6 µM [inhibitor, partial curve]"
11,C=CCn1c(=NC(=O)c2ccc(S(=O)(=O)N3CCCC3)cc2)sc2cc(NC(C)=O)ccc21,"inconclusive: 14.1 µM [inhibitor, partial curve]"
12,Cc1ccc(O)c(CO)n1,"inconclusive: 35.5 µM [inhibitor, partial curve]"
13,COC(=O)c1ccccc1NC(=O)N1CCN(S(=O)(=O)c2ccc(Cl)cc2)CC1,"inconclusive: 28.2 µM [inhibitor, partial curve]"
14,CCCCN(Cc1ccco1)C(=O)c1cc2c(=O)[nH]c3ccc(C)cc3c2s1,"inconclusive: 31.6 µM [inhibitor, partial curve]"
15,Clc1ccccc1-c1nc2ccccc2[nH]1,"inconclusive: 28.2 µM [inhibitor, single point]"
16,CCc1c(C)nc2c(OC)cccc2c1SCCC(=O)O,inactive
17,CCN(CC)S(=O)(=O)c1cccc(-c2n[nH]c(=S)n2Cc2ccccc2)c1,"inconclusive: 39.8 µM [inhibitor, single point]"
18,CC(C)CC(NC(N)=O)C(=O)NCCc1ccc(Cl)cc1Cl (centres undefined),inactive
19,CCCSc1ccc2nc(-c3ccccc3)cn2c1,"inconclusive: 28.2 µM [inhibitor, partial curve]"
20,CCN(CC)c1ccc(/C=N/Nc2cccc(C)c2)c(O)c1,"inconclusive: 28.2 µM [inhibitor, single point]"
21,Nc1nnc2c(n1)CCCC2,"inconclusive: 39.8 µM [inhibitor, single point]"
22,COc1cc(OC)c(OC)cc1CN1CCCC(C(=O)N2CCCCC2)C1 (centres undefined),"inconclusive: 39.8 µM [inhibitor, single point]"
